T1: UNK ZnF1-6 (called full-length) (human, UniProt Q9C0B0 30-357)
T1 sequence: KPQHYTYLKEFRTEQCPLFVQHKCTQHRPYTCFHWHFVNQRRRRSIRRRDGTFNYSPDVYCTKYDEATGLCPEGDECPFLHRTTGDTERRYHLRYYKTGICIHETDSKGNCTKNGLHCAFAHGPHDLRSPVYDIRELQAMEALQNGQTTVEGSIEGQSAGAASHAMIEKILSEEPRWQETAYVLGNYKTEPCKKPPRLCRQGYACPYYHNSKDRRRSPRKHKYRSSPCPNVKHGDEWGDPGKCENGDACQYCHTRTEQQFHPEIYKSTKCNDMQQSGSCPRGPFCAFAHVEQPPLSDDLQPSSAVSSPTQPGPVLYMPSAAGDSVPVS

B1: chr1:20111938:20114255:-|three_prime_utr|ENSG00000117215|control|control|control (ssRNA)
RNA: GGGAGUUCUACAGUCCGACGAUCACCAGAAGCGACUGCGUUUCUACUGGCGGCCCCACUGCCGGGGGCAGACCCCUGGGUGCUAGAAGCCCACACCCUCUACCCUGUUCCUCAGCAUGGAGCUCUGGCAUCCCCACCUCAGUACAACAGAGGAUUGAGCAUCA
B2: chr10:43184366:43184487:+|3pUTR|ENSG00000169826|unk|total|mutant (ssRNA)
RNA: GGGAGUUCUACAGUCCGACGAUCCCGUUUAUUUGAGCCAGCUCUAUCAGGGUCUUCCCAUGGUGGUUCAGAACCGAUGAGCACCGCAUGGUUUUGUUUGUUUUUGCUUUCAAUUUUCUAAUUUGGCAUGGAUCCAUAUGUAUUCAACAGAGGAUUGAGCAUCA
B3: chr4:17704999:17705206:-|CDS|ENSG00000047662|control|control|control (ssRNA)
RNA: GGGAGUUCUACAGUCCGACGAUCAAUCAAACAUCAGACAGAAGAGGAGAAGAAACAUCUCAAAGACCAGCUAGUGAAGCGACUAGAAGACUUGGUAAAGAAGCACACCGUGGAAAUCAAAUCCGUUCGCUCGUCCGUGGAGGCCAACAGAGGAUUGAGCAUCA
B4: ENSG00000120451:stop:overlap|stop_codon|ENSG00000120451|stop_codon|NA|stop_codon (ssRNA)
RNA: GGGAGUUCUACAGUCCGACGAUCCUGCUACCACCUCUGCCUCAGAUACCCCAGGCAACUCUAAGAGGAUGGGUGUCUCCUCUUAGCUGGUUAUUCACGCCUUCUUCCCAGGUCAGGGAAGUAGAGUUACUCGGCCACCAGAGACAACAGAGGAUUGAGCAUCA
B5: chr2:120222042:120222143:-|CDS|ENSG00000226479|msi1|total|mutant (ssRNA)
RNA: GGGAGUUCUACAGUCCGACGAUCGAAAUUUUCCCAUUUUUAAGAGAAUAUGGGAACAUUUCAUAUGAUCUCCAUCACGAAGACCGUGAAGAUGCUGAAGAAACAUCAGUUCCAGAAGCUCCGAAAAUUGCUCCAAUAUUUGGACAACAGAGGAUUGAGCAUCA
B6: chr14:53038166:53038268:-|3pUTR|ENSG00000100523|unk|FALSE|unique (ssRNA)
RNA: GGGAGUUCUACAGUCCGACGAUCGAGCUUUUGGCAGAGUCUUCGGGGUUUUCUAGGUAUAAAAUCAUAUCAGCGAAGAGAGCUAGUUUGAUUUCUUUUCCCAGUUGGAUGCCUUUUAUUUAUUUCUCUUGCCUGAUUGCUCUACAACAGAGGAUUGAGCAUCA

In PMC12136788 one finds binding signal data, which are given here for six molecules.

This is one part of the list.

This assay has as its target T1, UNK ZnF1-6 (called full-length). Put plainly: nsRBNS (natural sequence RNA bind-n-seq); RBNS binding buffer (assumed for nsRBNS): 25 mM Tris pH 7.5, 150 mM KCl, 3 mM MgCl2, 0.01% Triton X-100, 500 ug/ml BSA, 20 U/ml SUPERase-In, 4 C; UNK is unkempt and MSI1 is Musashi-1; names of the RNAs are library labels; protein concentration not given here; high values mean tight binding.
B1 registered a binding signal of 0.813 enrichment R. For the molecule B2, the binding signal was determined as 1.2 enrichment R. For the molecule B3, the binding signal stood at 0.563 enrichment R. On to B4, for which the binding signal came out at 0.576 enrichment R. For the molecule B5, the binding signal is 0.129 enrichment R. B6 registered a binding signal of 0.751 enrichment R.
